Test results from the RNAGym collection of RNA variant scans (doi:10.1073/pnas.2313332121).
Variants at the floor of the assay are shown more often than the library holds them.

B1: TPR 5TU (parent)
chain: GGAUCUUCUCGAUCUAACAAAAAAGACAAAUCUGCCACAAAGCUUGAGAGCAUCUUCGGAUGCAGAGGCGGCAGCCUUCGGUGGCGCGAUAGCGCCAACGUUCUCAACUAUGACACGCAAAACGCGUGCUCCGUUGAAUGGAGUUUAUCAUG

Variants of: B1
Test: polymerase ribozyme fitness, log enrichment relative to wild type (log ratio); higher = more active; in vitro selection for triplet polymerase activity
Summary of the method: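 Mutant libraries of both subunits of a heterodimeric triplet polymerase ribozyme were PCR-built, transcribed, and selected once in triplicate, with frozen incubation at −7 °C and capture of gel-excised extended constructs on streptavidin beads before RT-PCR. Illumina sequencing of input and output libraries was filtered to genotypes with ≥10 input reads and ≥1 read per output. Fitness is the logarithm of genotype enrichment over wild-type enrichment, using inverse-variance-weighted replicate averages. The logarithm is base 2.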

Polymerase ribozyme fitness (log ratio), -3.86:
A23G G59U C95U A110G

Polymerase ribozyme fitness (log ratio), -2.01:
A22U U134A

Polymerase ribozyme fitness (log ratio), -1.78:
A23G

Polymerase ribozyme fitness (log ratio), ≤ -4.2:
A22U U31G C87G A98G
A22U U55A G86U C93U U104G A142G
A22U U56A G84A U139A U145G
A22U U104A C108G
A23C A24C C43G C69G A91C C95A A122G
A23C A24C C76A C87G A142G
A23C A24G A28C C63U G67A A121U U144A
A23C A24G G88A C118U
A23C A24U A40C G124U
A23C A26G C116G
A23C A26U U56A G83A C96G U101G G124U U134G
A23C A29C A39U G50U C75G A91U U104G
A23C A29G A52C C54G U82C G136C
A23C A29G U82A A91C C93U
A23C A29U A41U G50A C95A G126A U145A U151G
A23C A30C A47U A60C C85U C96U C99A A107C G126A
A23C A30G C95U A98G
A23C A30U C54U G81A A91G G126C
A23C A37G U53A A66G G88U U130A U146A
A23C A41C C75A G84A A115U G152A
A23C A41G C51A U56A U127C
A23C A47G C93U C125A G126A G128A
A23C A47U U61A C95A
A23C A91G C108U
A23C A91U
A23C A119U G124C
A23C C27G U56A G58U
A23C C27U C57U C72A G83C A120G U151G
A23C C35G A47U G59U A66U U90G A122C
A23C C35U C54U
A23C C43A C54U A73U C99G
A23C C43U C93U C149G
A23C C54A C87A U90G G94C C116A A138G U145A
A23C C54U U56A A73U C75A G86U
A23C C57U G92U C93U
A23C C72U U82G
A23C C87G
A23C C114G
A23C C123A
A23C G25A U55A U61G G68A G92U A97U G124A G128C
A23C G34C C72U
A23C G34U C95U A113G
A23C G42U A47G C95U C108U C125U
A23C G59C G86U U134A U151C
A23C G68U C85A
A23C G74C C132G
A23C U90A
A23G A24C G50U A66C A91U A121U G126A
A23G A26U C54A U90G A91G
A23G A28G A39U A40U U44A U61A U78G C85U U151G
A23G A29G C131A
A23G A30G C85G C131A G133A A138U
A23G A37G A39G U44A A64U C75U C95U C108A A142U
A23G A39U A47C U53G G86C A106G
A23G A40G G42C
A23G A40U A66C U109G U111G C149U
A23G A41U C76G G80A A89U G124U
A23G A49U C51U U53A A60G U61A G71U A73G C85A C87A C105G
A23G A52C U53A U56G C85U
A23G C27G A40U C75U G81C G94C U101A U109A
A23G C36U G50U G100A A107G C118G
A23G C38U U56A C63U U77G C103A U135C
A23G C51U G65C G88C U111A C131G C149G
A23G C51U G80U C105G
A23G C75G C76U A115C
A23G C76G A89U C108G U111G
A23G C87A C96U A98C
A23G G25C G50C C57A G58U C85U U144C
A23G G34U C36U A89U C99A
A23G G46C
A23G G48C C108G A110G A122C
A23G G48C G67A C87G C125G G126U
A23G G50A A60C G74C G136C U148G
A23G G50C C96G U104G
A23G G58U C108G U135G
A23G G58U G83U C118U A137U
A23G G65U A120C G140A U144A

Polymerase ribozyme fitness (log ratio), -3.73:
A23G G50U U146G

Polymerase ribozyme fitness (log ratio), -3.48:
A23C

Polymerase ribozyme fitness (log ratio), 1.01:
A22U U31C G81C A89C

Polymerase ribozyme fitness (log ratio), -1.46:
A22U G133C
